The subject of this test is Schaffer-collateral synapses in area CA1 of the hippocampus. The experiment in a line: Slice electrophysiology, induction of LTP. Particulars: for LTP after 2 h (late phase) with transcription inhibitor alone / LTP up to 2 h after induction (early-phase) with transcription inhibitor alone: DRB 60 μM or actinomycin D 25 μM from 20 min prior to induction and for 3 h afterward; for enhancement of LTP normally seen with TSA, in the presence of transcription inhibitor: DRB 60 μM or actinomycin D 25 μM with TSA 1.65 μM; for LTP induced by 2, 100 Hz tetani: sodium butyrate 300 μM for 40 min beginning 20 min before LTP induction, vs ACSF.

Entries after “also recorded” stand apart in the source; their conditions may differ. Starred links: 1 amine or outer side, 2 acyl side, 3 side chain; linkers in the order of their positions; H or OH if unused. Positions of bridges follow the written chain, without caps; N, C: chain ends. Non-standard residues stand in square brackets, D forms with d. Residues, ends and D or L forms follow the SMILES beside them. Chains are numbered I, II in the order given. Actinocin(9to1) = Cc1c2oc3c(C)ccc(C(=O)[*:1])c3nc-2c(C(=O)[*:2])c(N)c1=O; NMeV = CN[C@H](C(=O)O)C(C)C; Sar = CNCC(=O)O

Consider `OC[C@H]1O[C@@H](n2cnc3cc(Cl)c(Cl)cc32)[C@H](O)[C@@H]1O` [DRB, 5,6-dichlorobenzimidazole riboside], for which the “LTP after 2 h (late phase) with transcription inhibitor alone” value is recorded as “decayed to unpotentiated levels by 3 h after induction; also recorded: decays to basal levels of synaptic efficacy 2 h after high-frequency stimulation”.
For the compound `Cc1c2oc3c(C)ccc(C(=O)N[C@@H]4C(=O)N[C@H](C(C)C)C(=O)N5CCC[C@H]5C(=O)N(C)CC(=O)N(C)[C@@H](C(C)C)C(=O)O[C@@H]4C)c3nc-2c(C(=O)N[C@@H]2C(=O)N[C@H](C(C)C)C(=O)N3CCC[C@H]3C(=O)N(C)CC(=O)N(C)[C@@H](C(C)C)C(=O)O[C@@H]2C)c(N)c1=O` [actinomycin D, Actinomycin D] (I: T[dV]P[Sar][NMeV] / II: T[dV]P[Sar][NMeV]; ester I:1-I:C, II:1-II:C; linker I:N-II:N via Actinocin(9to1)), the “LTP after 2 h (late phase) with transcription inhibitor alone” value was “decays to basal levels of synaptic efficacy 2 h after high-frequency stimulation”; the “LTP up to 2 h after induction (early-phase) with transcription inhibitor alone” value was “normal early-phase LTP”; the “enhancement of LTP normally seen with TSA, in the presence of transcription inhibitor” value is reported as “completely inhibits the enhancement of LTP normally seen with TSA”. For the same compound, under “listed as ActD”, the “LTP after 2 h (late phase) with transcription inhibitor alone” value is “decayed to basal levels after 2 h”; the “LTP up to 2 h after induction (early-phase) with transcription inhibitor alone” value is given as “normal”; the “enhancement of LTP normally seen with TSA, in the presence of transcription inhibitor” value is listed as “blocked the effect of TSA on LTP at all times”.
Consider `CCCC(=O)[O-].[Na+]` [sodium butyrate], for which the “LTP induced by 2, 100 Hz tetani” value was “significantly enhanced”. Moreover, the “LTP induced by 2, 100 Hz tetani” value (listed as NaB) is given as “enhanced induction of LTP”.

These data come from patent publication US20060018921A1, “Histone deacetylase inhibitors and cognitive applications” (priority 2004, published 2006).
